From PubChem BioAssay AID686979 (National Center for Advancing Translational Sciences (NCATS), 2013)
About 50,000 (12%) of roughly 420,000 compounds were called active. The shares of active, inactive and inconclusive entries below differ from those in the screen. Calls come from the whole dose curve; as a rule, active = well fitted inhibition curve with a large enough effect; inconclusive = small, poorly fitted or top-dose-only effect; inactive = flat fitted curve, though single readings scatter. Potencies of inconclusive entries are left out as doubtful fits.
% is set by controls: 0 for no effect and ±100 for the full control effect; potency is the fitted concentration of half-maximal effect; tags give direction and shape of the fitted curve.

Test: qHTS for Inhibitors of human tyrosyl-DNA phosphodiesterase 1 (TDP1): qHTS in cells in presence of CPT; note: nearly all actives have a fitted effect of over 55% in size
Settings: chicken DT40 Tdp1-/-;hTDP1 cells + 20 nM CPT, ATP luminescence, 48 h; activity change, negative = growth inhibition: at 46.2 µM (top of the series) unless noted
How it was run: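 Chicken DT40 Tdp1-/- cells stably complemented with human TDP1 were seeded at 400 cells/well in medium containing 20 nM camptothecin, exposed to pin-transferred compounds, and grown at 37 °C for at least 48 hr. Viability was read as ATP luminescence.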
In the case of CCCCCC(=O)N1C[C@H](O)[C@@H](n2cc(C3CC3)nn2)C[C@@H]1c1ccc(C)cc1, the Potency was inconclusive [inhibitor, single point].
In the case of COCc1ccc(CN2CCCC(C(=O)Nc3ccc(-c4cscn4)cc3)C2)o1 (stereo not given), the Potency was “inactive”.
In the case of CCOC(=O)C1=C(C)Nc2ccccc2N=C1NC(=O)c1cc(C)on1, the Potency was “inactive”.
With N#CCC(=O)N/N=C/c1cn(Cc2ccc3ccccc3c2)c2ccccc12 the Potency was active: 5.8 µM.
For COc1ccc(N2CCN(C(=O)c3ccc(Cl)c(S(=O)(=O)N4CCCC4)c3)CC2)cc1, the Potency was inconclusive [inhibitor, single point].
With Cc1csc(N/N=C/c2ccccc2F)n1 the Potency was inconclusive [inhibitor, single point].
In the case of CN1/C(=C\C(=O)COC(=O)CN2C(=O)C3CC=CCC3C2=O)C(C)(C)c2ccccc21 (stereo not given), the Potency was inconclusive [inhibitor, single point].
With CC1CC(C)CN(c2oc(-c3ccc(OCc4ccc(Cl)cc4)cc3)nc2C#N)C1 (stereo not given) the Potency was inconclusive [inhibitor, single point].
With COCC(=O)N[C@H]1CC[C@@H](CC(=O)NCc2ccccc2OC)O[C@@H]1CO the Potency was “inactive”.
With Cc1ccc(Nc2nc(Cl)c(C=O)s2)cc1 the Potency was active: 18.4 µM.
For COc1ccc(NC(=O)c2c(NCc3ccc(N(C)C)cc3)sc3c2CCC3)cc1, the Potency was active: 13 µM.
For Cc1cccc(-c2cccc3nccn23)c1, the Potency was inconclusive [inhibitor, single point].
For Oc1ccccc1/C=N/n1cnn(Cc2ccccc2Cl)c1=S, the Potency was inconclusive [inhibitor, single point].
With CC(=O)N/C(=C\c1ccccc1)C(=O)OC(C)C(=O)c1ccccc1 (stereo not given) the Potency was “inactive”.
With CCCc1[nH]nc2c1C(c1ccc(O)cc1OCC)C(C#N)=C(N)O2 (stereo not given) the activity change, negative = growth inhibition was inconclusive: -30.9% [inhibitor].
For N/C(=N\N=C\c1cccc(O)c1)c1nonc1N, the Potency was inconclusive [inhibitor, single point].
For C/C(=N\NC(=O)c1cc([N+](=O)[O-])cc([N+](=O)[O-])c1)c1ccco1, the Potency was inconclusive [inhibitor, single point].
In the case of CCC(C)[C@H]1COCCS(=O)(=O)N1Cc1ccc(Br)cc1 (stereo not given in full), the Potency was active: 17.8 µM.
In the case of CCOc1ccc(S(=O)(=O)NCc2cccnc2)cc1, the Potency was “inactive”.
In the case of O=c1[nH]c2ccc(S(=O)(=O)NCCO)cc2[nH]1, the Potency was “inactive”.
For CCNc1nc(NC(C)(C)C)nc(SCC(N)=O)n1, the Potency was “inactive”.
In the case of CCOc1ccc(NC(=O)c2cccc3c2C(=O)N(CC2CCCO2)C3)cc1 (stereo not given), the Potency was “inactive”.
With Cc1ccsc1CN(C(=O)c1oc2ccc(F)cc2c1C)C1CCS(=O)(=O)C1 (stereo not given) the Potency was active: 11.6 µM.
With COC(=O)[C@@H]1C[C@H]2CC[C@H](O)C[C@H]2N1Cc1ccc(C(C)(C)C)cc1 the Potency was inconclusive [inhibitor, partial curve, poor fit].
With O=C(CC1CCCCC1)NCc1ccco1 the Potency was “inactive”.
With COc1cccc(C2/C(=C(/O)c3ccc4c(c3)OCO4)C(=O)C(=O)N2CCN2CCOCC2)c1 (stereo not given) the Potency was “inactive”.
In the case of CCOc1ccccc1NC(=O)N(Cc1ccc(F)cc1)C1CCN(CC)CC1, the Potency was inconclusive [inhibitor, single point].
With Cc1cccnc1NC(=S)NC(=O)/C=C/c1ccco1 the Potency was “inactive”.
With Cc1ccc(OCC(=O)Nc2ccc3c(c2)ncn3C)cc1 the Potency was “inactive”.
With COc1ccc(CN2CN(C3CCCC3)CSC2=S)cc1 the Potency was active: 5.17 µM.
With COC(=O)CSc1nc2cc(C)ccc2cc1C#N the Potency was active: 18.4 µM.
With NC(=O)NC(CC(=O)NNC(=O)c1ccccn1)c1ccccc1Cl (stereo not given) the Potency was “inactive”.
For Cc1ccc(C(=O)N/N=C\c2ccc(Br)o2)o1, the Potency was “inactive”.
For Cc1ccc(NC(=O)C2CCCN2S(=O)(=O)c2cccc3nsnc23)c(C)c1 (stereo not given), the Potency was inconclusive [inhibitor, single point].
In the case of CCC(C)c1ccc(NC(=O)C2CCCN(c3ncccn3)C2)cc1 (stereo not given), the Potency was active: 20.6 µM.
With CCOC(=O)c1c(-c2ccc(C)o2)csc1NC(=O)COC(=O)c1cccs1 the Potency was inconclusive [inhibitor, single point].
In the case of CN(C)CCCNS(=O)(=O)c1ccc(NC2CCCCCC2)c([N+](=O)[O-])c1, the Potency was active: 2.91 µM.
For COc1ccc(C(=O)Nc2ccc3c(c2)OCCO3)cc1, the Potency was “inactive”.
For O=C(Nc1ccccc1N1CCOCC1)C1=COCCO1, the activity change, negative = growth inhibition was inconclusive: -18.7% [inhibitor].
In the case of CN(C)S(=O)(=O)N1CCC(Oc2cccc(C(=O)N3CCCCCC3)c2)CC1, the Potency was inconclusive [inhibitor, single point].
In the case of O=C(Nc1cccc2nsnc12)c1ccc(-c2cccc(Cl)c2)o1, the Potency was inconclusive [inhibitor, single point].
With Fc1ccc2c(c1)C(c1ccc(N3CCOCC3)cc1)=NNC(c1cccs1)=N2 the Potency was inconclusive [inhibitor, single point].
For COC(=O)[C@]12CCCCC=C1N(CCC1=CCCCC1)C(=O)[C@H](CC(=O)NCc1ccc(OC)c(OC)c1)C2, the Potency was inconclusive [inhibitor, single point].
In the case of Cc1ccc(Nc2ncc(C(=O)N3CCN(c4ccc(F)cc4)CC3)c3ccccc23)cc1Cl, the Potency was inconclusive [inhibitor, single point].
For COCCN1CCn2c(nc3cc(NC(C)=O)ccc32)C1, the Potency was “inactive”.
For O=C(C1=C[C@H](C2CCCCC2)C[C@H](OCc2ccc(CO)cc2)O1)N1CCOCC1, the Potency was inconclusive [inhibitor, single point].
With Cc1cccc2c(=O)cc(C)n(CC(N)=O)c12 the Potency was “inactive”.
In the case of CCOc1cc(/C=C2\N=C(C)OC2=O)cc(Cl)c1OCC(=O)OC, the Potency was inconclusive [inhibitor, partial curve].
In the case of Cc1ccc(NC(=S)NC(=O)C2CCCC2)cc1C, the Potency was inconclusive [inhibitor, single point].
For O=C(NC12CC3CC(CC(C3)C1)C2)N1CCN(S(=O)(=O)c2ccc(Cl)cc2)CC1, the Potency was active: 18.4 µM.
